Article PMC12136788
The list shows a part of the results.

B1: chr20:62294722:62294823:+|3pUTR|ENSG00000130703|unk|total|mutant (ssRNA)
RNA: GGGAGUUCUACAGUCCGACGAUCCGCACACCGCGUCCGUGUCUCCAGGGGGUUCCUUUCUUCUCACACGUCGCGUGUACCCACCGCACUCUUGUGUUUCUGUUUUUCCCAGUAUGCAUGUUUAAAACCGAAGUGACAAGAAUCCAACAGAGGAUUGAGCAUCA
B2: ENSG00000114439:stop:overlap|stop_codon|ENSG00000114439|stop_codon|NA|stop_codon (ssRNA)
RNA: GGGAGUUCUACAGUCCGACGAUCUUCAUUGUAAAACAUUGUGCUUUACCUACUACCCUAGCCUUGUCUUUACCGAGGGAUGCUAGUGAGUCCAAGUGGUGGAAAAUAUAGACUGCAAACAAGUGCUUGUUGCCCCACACGGCCCAACAGAGGAUUGAGCAUCA
B3: chr11:102867907:102868069:-|CDS|ENSG00000262406|control|control|control (ssRNA)
RNA: GGGAGUUCUACAGUCCGACGAUCACAAACUUGUUCCUCACUGCUGUUCACGAGAUUGGCCAUUCCUUAGGUCUUGGCCAUUCUAGUGAUCCAAAGGCCGUAAUGUUCCCCACCUACAAAUAUGUUGACAUCAACACAUUUCGCCAACAGAGGAUUGAGCAUCA
B4: chr17:81557321:81557422:-|3pUTR|ENSG00000182446|msi1|FALSE|unique (ssRNA)
RNA: GGGAGUUCUACAGUCCGACGAUCAGCAUUUCCCUUACUCUGAAGUUCCGGCAUUCACAUCAUUCAUGUUUUCUUUUGUCUUUUAGCUAAAGGAAAAGCAUUGGCGAUUUGUCUGAUUCUGGUUUUGAGUUACUCUUUGUUCAGCAACAGAGGAUUGAGCAUCA
B5: chr11:35231809:35232301:+|3pUTR|ENSG00000026508|msi1|FALSE|unique (ssRNA)
RNA: GGGAGUUCUACAGUCCGACGAUCACAACACCAAGAAUUGAUUUUGUAGCCAACAUUCAUUCAAUACUGUUAUAUCAGAGGAGUAGGAGAGAGGAAACAUUUGACUUAUCUGGAAAAGCAAAAUGUACUUAAGAAUAAGAAUAACAACAGAGGAUUGAGCAUCA
B6: chr6:105099394:105099495:-|3pUTR|ENSG00000112276|msi1|total|mutant (ssRNA)
RNA: GGGAGUUCUACAGUCCGACGAUCUCCGUUGAAUGAAGCUCAUUGAUUGGCCAUGCUGGUCAUGUCUAUUUUGCUUCAUCCACCCGAACCAACUUUGAGUCAGUCUCCUGUUACGUUAAAUGGCUAAGAAAAGUUCCAAAUGAACAACAGAGGAUUGAGCAUCA
B7: chr19:38730201:38730298:+|3pUTR|ENSG00000130402|msi1_unk|FALSE|overlapping (ssRNA)
RNA: GGGAGUUCUACAGUCCGACGAUCCAGAGAAUUACUAUUUACUUUAUUAACUUACGGAUUUAUUAUAUAAAUAUAUAUUCACCUAGCAACAUAUCUCUGCCGUCUCUCCUGCUCUCAUAAUGAAGACAUAGCCGAUUCUCUGCCCAACAGAGGAUUGAGCAUCA
B8: ENSG00000198589:be:win_6351|CDS|ENSG00000198589|bound_else_gene|NA|bound_elsewhere_windowed (ssRNA)
RNA: GGGAGUUCUACAGUCCGACGAUCGCUGCAUGGAAAAUGGCUGUUCACAGAGAUACGAUCAAUCUUUUCUCGUCGUUAUCUUUUGCAAAAUACAGCCCUGGAGAUCUUUAUGGCAAACAGAGUUGCUGUGAUGUUCAACUUCCCCAACAGAGGAUUGAGCAUCA
B9: chr9:128810308:128810409:+|3pUTR|ENSG00000107021|unk|FALSE|unique (ssRNA)
RNA: GGGAGUUCUACAGUCCGACGAUCUACAGAUUGAGCUGUAUGAAUUCAGCGGGUCUCACUCCAGAGGGUCAGAACGUUUGCUUUAGUUUUUUCAUCUGUUUUGUUCCUUGAGUCAGUGCUGUUGAUGACGAGUUGUCUUGAAUACAACAGAGGAUUGAGCAUCA
B10: chr11:43342853:43342954:+|3pUTR|ENSG00000166181|msi1|total|mutant (ssRNA)
RNA: GGGAGUUCUACAGUCCGACGAUCCCCGUUCUGCUGAUAAAGAUCAUCAGUUUUGAAAGGUUACUGAUUUUCCUCUUCCCUCUCCGUUUUUUACCCAAUAUAUGGAGAAGAGUAAUGGUCAAUCUUAACAUUUUGUUUUAAUUGCAACAGAGGAUUGAGCAUCA
B11: ENSG00000136451:be:win_251|CDS|ENSG00000136451|bound_else_gene|NA|bound_elsewhere_windowed (ssRNA)
RNA: GGGAGUUCUACAGUCCGACGAUCGGGACAGCUAUCACCUGAGGCGCCACGAAUCCUGCCACACAGGGAUCAAGUUGGUGUCCCGGCCAAAGAAAACCCCCACCACGGUGGUUCCCCUUAUCUCUACCAUCGCUGGGGACAGCACAACAGAGGAUUGAGCAUCA
B12: chr11:35230299:35231094:+|3pUTR|ENSG00000026508|msi1|total|mutant (ssRNA)
RNA: GGGAGUUCUACAGUCCGACGAUCGCCUGGGGAGUCCCUCAAAAGGUUAAAGGGAUUCCCAUCAUUGGAAUCUUAUCACCAGACCGGCAAGUUUAUGACCAAACAAGAGAGUACUGGCUUUAUCCUCUAACCUCAUAUUUUCUCCAACAGAGGAUUGAGCAUCA
B13: chr1:229632307:229632408:+|CDS|ENSG00000135763|unk|total|mutant (ssRNA)
RNA: GGGAGUUCUACAGUCCGACGAUCAUUUUAUAAGAAAAAGCUUGAACUGAAGGAAGAUAUUGUUGAAAGGCUUUGGAUCUAUACCGAUAACAUUUUACACCGCAGAAAAUUGCAGAAUCUCCUCAAGAAUGGAAAGACCAUUAACAACAGAGGAUUGAGCAUCA
B14: ENSG00000198589:be:win_3801|CDS|ENSG00000198589|bound_else_gene|NA|bound_elsewhere_windowed (ssRNA)
RNA: GGGAGUUCUACAGUCCGACGAUCUCAACCUCAUCGACAUGUGCUUGAGAUAUCAAGGCAACAUGAGCAGCCAGGGCAAGGAAUAGCACCAGAUGCAGUUAAUGGACAAAGGAGGGAUUCCAGAUCUACUGUGUUUCGUAUUCCCAACAGAGGAUUGAGCAUCA
B15: chr20:23354638:23354749:+|3pUTR|ENSG00000132661|unk|total|mutant (ssRNA)
RNA: GGGAGUUCUACAGUCCGACGAUCAAGUUCCCGGAGUCCCUUUCCUGAAUAUAUACUUGUUUGUCACCGUUUCCUUUUCAAAGCCGUAAACUUUUCUAUUUUUCUACUUGCCCAGCCGAGACUCUGAUUCUGGAAAUUCUGACACAACAGAGGAUUGAGCAUCA
B16: chr17:59694590:59694691:+|3pUTR|ENSG00000141367|msi1|total|mutant (ssRNA)
RNA: GGGAGUUCUACAGUCCGACGAUCCUUGUGUGUGUUUACUAACCCUUCCCUGAGGUUUGUGUAUGUUGGAUAUUGUGGUGUUUCCGAUCACUGAGUGUACAGAAGAGAGAAAUUCAAACAAAAUAUUGCUGUUCUUCAGUUUUGCAACAGAGGAUUGAGCAUCA
B17: chr1:228098371:228098472:+|3pUTR|ENSG00000143761|msi1_unk|FALSE|overlapping (ssRNA)
RNA: GGGAGUUCUACAGUCCGACGAUCUGUGUUGAAAUCCAUUUUGGUGGUUGGUUUUUAACCCAAACUCAGUGCAUUUUUUAAAAUAGUUAAGAAUCCAAGUCGAGAACACUUGAACACACAGAAGGGAGACCCCGCCUAGCAUAGCAACAGAGGAUUGAGCAUCA
B18: ENSG00000198589:be:win_3551|CDS|ENSG00000198589|bound_else_gene|NA|bound_elsewhere_windowed (ssRNA)
RNA: GGGAGUUCUACAGUCCGACGAUCCAUCAGGGUCUUCAGCUAUGUCACCAGAAACUACUGUUUCCCAAAUAGCUGUAGAAUCAGACCUUGGUCAGAUGCUGGAGGAAGGGAAGAAAGCAACUAACCUCACUAGAGAAACCAAAUCAACAGAGGAUUGAGCAUCA
B19: chr11:118396625:118396726:+|3pUTR|ENSG00000110344|msi1|FALSE|bound_elsewhere (ssRNA)
RNA: GGGAGUUCUACAGUCCGACGAUCAACUUGACAAUGCUCCCCUGGCUUGCAGGAAAUUAUACUUAUUAUAGCAUCACCAAGUUUAGAAAUCAUCACUAAUUUUCACCCUCUGUUGUCUCUUCAUAUUCUUCUUCCUUUUCCUAACAACAGAGGAUUGAGCAUCA
B20: chr5:133076644:133076819:+|CDS|ENSG00000170606|unk|FALSE|unique (ssRNA)
RNA: GGGAGUUCUACAGUCCGACGAUCAAAAUUUGAUGAAGUGUUAGUAAAUCACUUCUGUGAAGAAUUUGGGAAGAAAUACAAGCUAGACAUUAAGUCCAAAAUCCGUGCAUUAUUACGACUCUCUCAGGAGUGUGAGAAACUCAACAACAGAGGAUUGAGCAUCA
B21: ENSG00000107863:be:win_4251|CDS|ENSG00000107863|bound_else_gene|NA|bound_elsewhere_windowed (ssRNA)
RNA: GGGAGUUCUACAGUCCGACGAUCUAGUCGCAAGAGGAAGAAGCCGAAAGAAAAAGCACAGCCUAGCAGCUCAGAAGAUGAACUGGACAAUGUAUUUUUUAAGAAAGAAAAUGUGGAACAGUGUCACAAUGAUACUAAAGAGGACAACAGAGGAUUGAGCAUCA
B22: chr10:73479331:73479449:-|CDS|ENSG00000107758|unk|total|mutant (ssRNA)
RNA: GGGAGUUCUACAGUCCGACGAUCGUUGAUGUUCUGAAGAACCACUUGGUGAAAGAAGGUCGAGCCGAUGAAGAAAUUGCGCUCCGAAUUAUCAAUGAGGGUGCUGCCAUCCUUCGGAGAGAGAAAACCAUGACCGAAGCCGAACAACAGAGGAUUGAGCAUCA

Target: MSI1 full-length (mouse, UniProt Q61474 1-362)
Chain of UniProt Q61474 (Q61474 whole entry): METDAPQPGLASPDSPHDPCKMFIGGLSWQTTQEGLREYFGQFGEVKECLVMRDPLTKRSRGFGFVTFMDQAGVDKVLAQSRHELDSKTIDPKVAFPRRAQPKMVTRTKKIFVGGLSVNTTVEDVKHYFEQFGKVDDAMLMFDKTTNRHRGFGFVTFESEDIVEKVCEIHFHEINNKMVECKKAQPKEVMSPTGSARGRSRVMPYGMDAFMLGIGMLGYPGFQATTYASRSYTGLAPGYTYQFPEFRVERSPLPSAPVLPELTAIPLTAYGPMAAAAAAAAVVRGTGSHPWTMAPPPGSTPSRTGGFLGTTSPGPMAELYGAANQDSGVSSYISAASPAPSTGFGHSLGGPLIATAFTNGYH
Assay: nsRBNS (natural sequence RNA bind-n-seq); RBNS binding buffer (assumed for nsRBNS): 25 mM Tris pH 7.5, 150 mM KCl, 3 mM MgCl2, 0.01% Triton X-100, 500 ug/ml BSA, 20 U/ml SUPERase-In, 4 C; UNK is unkempt and MSI1 is Musashi-1; names of the RNAs are library labels; protein concentration not given here; high values mean tight binding

| Binder | binding signal |
| --- | --- |
| B1 | 0.397 enrichment R |
| B2 | 0.375 enrichment R |
| B3 | 0.381 enrichment R |
| B4 | 0.283 enrichment R |
| B5 | 0.807 enrichment R |
| B6 | 0.152 enrichment R |
| B7 | 39.3 enrichment R |
| B8 | 0.271 enrichment R |
| B9 | 0.739 enrichment R |
| B10 | 0.367 enrichment R |
| B11 | 0.396 enrichment R |
| B12 | 0.307 enrichment R |
| B13 | 0.623 enrichment R |
| B14 | 0.446 enrichment R |
| B15 | 0.531 enrichment R |
| B16 | 0.459 enrichment R |
| B17 | 2.15 enrichment R |
| B18 | 0.347 enrichment R |
| B19 | 7.88 enrichment R |
| B20 | 1.47 enrichment R |
| B21 | 0.561 enrichment R |
| B22 | 0.479 enrichment R |
